Experimental data reported in PubChem BioAssay AID463173 (ICCB-Longwood Screening Facility, Harvard Medical School, 2010).
Screen size: about 52,000 compounds; about 4,300 (8.3%) were called active. Rule as the data show it: active = survival mostly below about 52% (no sharp cut-off); inactive = mostly above about 56%. The list shows a part of the results.

test system: DeltatarO mutant; assay: S. aureus survival, RN4220 and DeltatarO strains – OD600, teichoic acid synthesis inhibitors, primary screen (AID 463173); conditions: S. aureus RN4220 wild type/DeltatarO growth, OD600, 18 h, hits give low values, screened at 18.75 µg/mL (by protocol)

SMILES	survival
CCOc1ccc(CNC(=O)Cn2c(=O)c3cccn3c3ccc(F)cc32)cc1	inactive: 80%
CCOc1ccc(OCC)c(NC(=O)C2CCCN(S(=O)(=O)c3ccc4c(c3)oc(=O)n4C)C2)c1 (stereo not given)	inactive: 95%
Cc1cccc(-c2nc(SCCCOc3ccccc3Cl)n3[nH]c(=O)cc3n2)c1	inactive: 57%
C#CCNc1c2c(nc3nnnn13)CCCC2	inactive: 84%
O=C(Nc1ccc(F)c(Cl)c1)N1CCN(C(=O)c2nsc3ccccc23)CC1	inactive: 68%
Cc1cc(C)cc(-n2c(SCC(=O)N3CCc4ccccc43)nc3c([nH]c4ccccc43)c2=O)c1	inactive: 55%
CC(=O)Nc1ccc(Nc2ncnc3c2c(-c2ccccc2)cn3-c2ccccc2)cc1	inactive: 125%
c1ccc(CNc2nc3ccccc3c3nc(-c4ccccc4)nn23)cc1	inactive: 54%
Cn1c(=O)c2nc(SCC(=O)Nc3cc(Cl)ccc3Cl)n(C)c2n(C)c1=O	inactive: 89%
NC(=O)CSc1nc2c(oc3ccccc32)c(=O)n1-c1ccccc1F	inactive: 59%
COc1ccc(Cl)cc1NC(=O)N1CCC(CN2CCc3ccccc3C2)CC1	inactive: 109%
O=c1c2cc3c(cc2nc2sc(Nc4ccc(F)cc4F)nn12)OCO3	inactive: 56%
Cn1nc(C(=O)N2CCN(c3ccc(Cl)cc3)CC2)c2c1-c1ccccc1SC2	inactive: 82%
Cc1ccc(NC(=O)Cn2nnnc2-c2ccccc2N)cc1	inactive: 73%
CCN(CC)C(=O)CSc1nc2cccnc2n1C	inactive: 74%
O=C(C1CCCN(S(=O)(=O)c2cccs2)C1)N1CCN(c2cccc(Cl)c2)CC1 (stereo not given)	inactive: 89%
Cc1ccc(C)c(N2CCN(c3ncnc4c3nc3n4CCCCC3)CC2)c1	inactive: 91%
COc1ccc(Nc2cc(C(=O)NCCc3ccccc3)c3ccccc3n2)cc1OC	inactive: 99%
COc1ccc(OCCn2c(C3CC(=O)N(c4ccc(F)cc4)C3)nc3ccccc32)cc1 (stereo not given)	active: 59%
COc1ccccc1Nc1cc(C)nc2nc(-c3ccccc3)nn12	inactive: 55%
Cc1ccc(CNC(=O)Cn2ncc3c(C)n(Cc4ccc(Cl)cc4)c(C)c3c2=O)cc1	inactive: 64%
CCCCOC(=O)c1ccc(NS(=O)(=O)c2c(C)nc3scc(C)n3c2=O)cc1	active: 43%
CCCN(C(=O)Cn1ncc2c(=O)oc3ccccc3c21)c1cccc(C)c1	inactive: 79%

SMILES	survival
Cc1ccc(NC(=O)c2c(N3CCCC3=O)c3cc(C)ccc3n2C)c(C)c1	inactive: 79%
COc1ccc2[nH]c(=O)c(CN(Cc3ccco3)C(=S)NC3CCCCC3)cc2c1	inactive: 77%
CCC(C)NC(=O)Cn1c(=O)n(Cc2ccc(C(=O)NCCCOC)cc2)c(=O)c2ccccc21 (stereo not given)	inactive: 90%
O=C(NC1CCCCC1)O/N=C/c1ccc(F)cc1	inactive: 95%
CCc1ccc(-n2nc3cc(C)c(NC(=O)c4cc(Cl)ccc4OC)cc3n2)cc1	inactive: 86%
Cc1ccc(NC(=O)c2ccc(NC(=O)N3CCSc4ncccc43)cc2)cc1Cl	inactive: 109%
O=C(NCc1ccccc1)C(c1ccc(F)cc1)N(Cc1ccco1)C(=O)c1ccccn1 (stereo not given)	inactive: 81%
O=C(Cn1cc(S(=O)(=O)Cc2ccc(F)cc2)c2ccccc21)NCCc1ccccc1	inactive: 87%
Cc1ccc2c(=O)cc(C(=O)Nc3sc4c(c3C(=O)NCc3ccco3)CCC4)oc2c1C	inactive: 78%
Cc1ccccc1CNC(=O)c1c(C)oc2c1C1=NCCN1C=N2	inactive: 77%
Cc1ccccc1Cn1cc(S(=O)(=O)c2ccc(Cl)cc2)c(=O)c2cc3c(cc21)OCO3	inactive: 73%
Cc1c(NC(=O)c2nc3ccccc3n(C)c2=O)cccc1[N+](=O)[O-]	inactive: 82%
COC(=O)c1c(NC(=O)c2ccc(S(=O)(=O)N3CCCC(C)C3)cc2)sc2c1CCN(C(C)C)C2 (stereo not given)	inactive: 99%
CC(C)c1ccc(NC(=O)CSc2ncc3c(n2)-c2ccccc2N(C)S3(=O)=O)cc1	inactive: 92%
Cc1ccc(Cl)c2sc(N3CCN(C(=O)C4CC4)CC3)nc12	inactive: 87%
CSc1ccc(CNCc2c(C(=O)O)c(C)n(Cc3ccc(F)cc3Cl)c2C)cc1	inactive: 79%
CC1=NN(CCC#N)C(c2ccccc2)C1 (stereo not given)	inactive: 107%
Cc1cc(C)cc(OCC(=O)NCC(c2ccc(Cl)cc2)N2CCCCC2)c1 (stereo not given)	inactive: 61%
CC1CCc2c(sc3nnn(Cc4ccc(F)cc4)c(=O)c23)C1 (stereo not given)	active: -1%
COc1ccc(Cc2c(Cl)nc(SC)nc2NN)cc1	inactive: 84%
O=C(NCc1ccccc1)c1cc(-c2cccc(Cl)c2)on1	inactive: 61%
COc1ccc(S(=O)(=O)N2CCN(c3ccc(F)cc3)CC2)cc1-c1noc(C)n1	inactive: 51%
COC(=O)c1cc(NC(=O)CCc2c(C)nc3c4c(C)cc(C)nc4nn3c2C)cc(C(=O)OC)c1	active: 56%

SMILES	survival
Cc1cc(S(=O)(=O)Nc2cccc(C(=O)O)c2)c(C)c(S(=O)(=O)c2ccccc2)c1	inactive: 76%
Cc1nnc(SCCCN2C(=O)c3ccccc3C2=O)o1	inactive: 73%
S=c1[nH]nc(NNc2ccccc2)n1Nc1ccccc1	inactive: 74%
CN(C)C(=O)c1c(N)no[n+]1[O-]	active: 56%
CCOC(=O)c1sc2ccccc2c1S(=O)(=O)Nc1ccc(N(C)C)cc1	inactive: 126%
CCOC(=O)c1sc(N2C(=O)c3oc4cc(C)c(C)cc4c(=O)c3C2c2cccc(O)c2)nc1C (stereo not given)	inactive: 78%
CCc1ccccc1NC(=O)Cn1nnc(C(=O)OC)c1C(=O)OC	inactive: 93%
COc1ccc(N2CCOCC2)cc1	inactive: 89%
CCN(CC)S(=O)(=O)c1ccc2c(c1)N(CC(=O)Nc1c(C)cccc1C)C(=O)CO2	inactive: 91%
COc1ccc(OC)c(N(CC(=O)NCc2ccccc2)S(=O)(=O)c2ccccc2)c1	inactive: 71%
O=C1CC2CCC(CN1)N2CC(=O)N1c2ccccc2Sc2ccc(C(F)(F)F)cc21 (stereo not given)	inactive: 102%
CCc1ccc(NCc2cc3cc4c(cc3n(CC(=O)Nc3ccc(Cl)cc3)c2=O)OCO4)cc1	inactive: 135%
COC(=O)c1ccc(NC(=O)CC2C(=O)N(c3ccc(Cl)cc3)C(=O)N2Cc2cccs2)cc1 (stereo not given)	inactive: 102%
COc1ccc(CCNC(=O)c2nn(-c3ccc(C)cc3)c(=O)c3c2c2ccccc2n3C)cc1OC	inactive: 80%
O=C(CC1N=C2c3ccccc3N=C(SCC(=O)Nc3cccc(C(F)(F)F)c3)N2C1=O)NCc1cccs1 (stereo not given)	inactive: 69%
CCOC(=O)CCn1nc(-c2ccc(C)cc2)c2ccccc2c1=O	inactive: 67%
Cc1ccc(C)c(Cn2c(=O)n(Cc3ccccc3)c(=O)c3c(C)c(C)sc32)c1	inactive: 97%
CCc1ccccc1NC(=O)Nc1nnc(N2CCCC2)s1	inactive: 90%
CCc1ccc(CN(Cc2ccco2)C(=O)c2ccccc2Cl)cc1	active: 46%
COc1ccccc1NC(=O)CCCOc1cc(=O)n(C)c2ccccc12	inactive: 114%
CCc1ccccc1NC(=O)c1cc(S(=O)(=O)N(CC)c2ccccc2)ccc1F	inactive: 101%
CCOC(=O)Cn1cnc2sc(C)c(C)c2c1=O	inactive: 95%
CC1CCN(c2nc3c(S(=O)(=O)c4ccccc4)nnn3c3ccsc23)CC1	inactive: 113%

SMILES	survival
COc1ccc(-c2nc(C)c(CCNC(=O)C(=O)Nc3cccc(F)c3)s2)cc1OC	inactive: 83%
Cc1ccc(S(=O)(=O)c2nnn3c2nc(NCc2ccc(F)cc2)c2sccc23)cc1	inactive: 113%
CCCNC(=O)c1ccc2c(c1)N(Cc1cccc(C)c1)C(=O)c1ccccc1S2	inactive: 101%
COc1ccc(NC(=O)CCN2CCN(c3cccc(Cl)c3)CC2)cc1	inactive: 67%
O=C(CSC1=NCCS1)N1CCN(c2ccc(Cl)cc2)CC1	inactive: 69%
O=C(Cn1c(C(=O)N2CCN(C(=O)c3ccco3)CC2)cc2sccc21)c1ccccc1	inactive: 85%
Cc1ccc(C(=O)COC(=O)c2cc(-c3ccccc3)nc3ccccc23)cc1C	inactive: 125%
COc1cc(NC(=O)Cn2c(=O)n(Cc3ccccc3OC)c(=O)c3cccnc32)cc(OC)c1	inactive: 119%
CCn1nc(C)c(Oc2ccccc2O)c1C	inactive: 118%
Cc1ccc(C)c(N2CCN(S(=O)(=O)c3ccc4oc(=O)c5ncn(C)c5c4c3)CC2)c1	inactive: 76%
CCOC(=O)CSc1nnc(-c2ccccc2NC(=O)c2ccccc2)o1	inactive: 125%
O=C(NCCc1ccccc1)c1ccc(CSc2nc3cccnc3n2Cc2ccc(F)cc2)cc1	inactive: 92%
CC(=O)c1ccc(NC(=O)C2CCC(CNS(=O)(=O)c3ccc(Br)s3)CC2)cc1 (stereo not given)	inactive: 69%
O=C(NC(=O)c1cccc(F)c1)Nc1ccc(-c2cc(C(F)(F)F)nn2-c2ccccc2)cc1	inactive: 157%
Cc1nc(-c2ccc(C)c(N3CCN(C(=O)Nc4ccccc4C(F)(F)F)CC3)c2)no1	inactive: 89%
COc1cccc(CNC(=O)c2c(C)nn(-c3cccc(C)c3)c2-n2cccc2)c1	inactive: 81%
O=C(NCCCc1ccccc1)c1nn(-c2ccccc2F)nc1CO	inactive: 92%
COC(=O)c1sc(-c2ccccc2)cc1NC(=O)c1cccc(F)c1	inactive: 94%
O=C(NCc1ccc(F)cc1)C1CCN(C(=O)c2ccc(-n3ccc4ccccc43)s2)CC1	inactive: 83%
Cc1ccc(CN2CCCn3nc(C(=O)NCCC(C)C)cc3C2=O)cc1	inactive: 92%
CCC(C)(C)n1nnnc1C(C(C)C)N(Cc1cccnc1)Cc1ccco1 (stereo not given)	inactive: 78%
